# Experimental data: the supplement of paper PMC9135407
# Several values for one entry are separate records, joined by “and”; a condition that tells them apart may be missing. Identical values can stand only once. Counter-ions that a name gives are not always drawn. Hit rate of the full screen: of about 5,800 compounds, about 620 (11%) showed activity.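 The calls were made as follows: active = score above a cut-off or among the top three wells of a plate; in these data no inactive exceeds 0.85.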 Only a part is listed here, and it is no random draw.
# Tested on: primary human hepatic stellate cells (donor 1)
# Test: scaled lipid accumulation score (0 = DMSO-like, 1 = nortriptyline-like); higher = stronger HSC inactivation (lipid re-accumulation), active = hit call of the paper
# Conditions: 48 h
# [1] = library stock concentration: 10 mM
# [2] = library stock concentration: 7.7 mM
# [3] = library stock concentration: 3.33 mM
# [4] = library stock concentration: 1 mM
# [5] = library stock concentration: 80 uM
# [6] = library stock concentration: 400 uM
smiles,measurement,setting,value
Cn1cc(C(=O)C(=O)N[C@H]2CN3CCC2CC3)c2ccccc21,scaled lipid accumulation score,[1],inactive: 0.403
CCn1cc(C(=O)O)c(=O)c2cc3c(cc21)OCO3 [Oxolinic acid],scaled lipid accumulation score,,inactive: ≤ 0
same,scaled lipid accumulation score,[2],inactive: ≤ 0
same,scaled lipid accumulation score,[1],inactive: ≤ 0 and inactive: ≤ -0.055
N[C@@]1(C(=O)O)CC[C@@H](C(=O)O)C1,scaled lipid accumulation score,[1],inactive: ≤ 0
CC1=NCCc2c1[nH]c1cc(O)ccc21.Cl.O.O [Harmalol hydrochloride dihydrate],scaled lipid accumulation score,,active: 0.979
"CN(C(=O)Cc1ccc(Cl)c(Cl)c1)C(CN1CCCC1)c1cccc(OCC(=O)O)c1 (stereo not given) [ICI 204,448 hydrochloride]",scaled lipid accumulation score,[1],inactive: 0.053
NCCc1ccc(O)cc1 [4-Hydroxyphenethylamine hydrochloride],scaled lipid accumulation score,[1],inactive: ≤ 0
NCCc1ccc(O)cc1 [Tyramine],scaled lipid accumulation score,[1],inactive: ≤ 0
CN(C)C(=O)Oc1cc(OC(=O)N(C)C)cc(C(O)CNC(C)(C)C)c1 (stereo not given) [Bambuterol hydrochloride],scaled lipid accumulation score,,inactive: 0.078
CN(C)C(=O)Oc1cc(OC(=O)N(C)C)cc(C(O)CNC(C)(C)C)c1 (stereo not given) [Bambuterol],scaled lipid accumulation score,library stock concentration: 5.4 mM,inactive: 0.084
CN(C)C(=O)Oc1cc(OC(=O)N(C)C)cc(C(O)CNC(C)(C)C)c1 (stereo not given) [Bambuterol HCl],scaled lipid accumulation score,[3],inactive: ≤ 0
same,scaled lipid accumulation score,[1],inactive: ≤ -0.001
O=C1NC(=O)c2c1c1c3ccccc3n3c1c1c2c2ccccc2n1C1CCC3O1,scaled lipid accumulation score,[1],active: 1.3
CCN1C[C@]2(COC)[C@H](O)C[C@H](OC)[C@@]34[C@@H]5C[C@@]6(O)[C@H](OC(=O)c7ccccc7)[C@@H]5[C@@](OC(C)=O)([C@@H]([C@H](OC)[C@H]23)[C@@H]14)[C@@H](O)[C@@H]6OC [Aconitine],scaled lipid accumulation score,,inactive: 0.045
same,scaled lipid accumulation score,library stock concentration: 3.1 mM,inactive: ≤ 0
same,scaled lipid accumulation score,[2],inactive: ≤ -0.021
same,scaled lipid accumulation score,[1],inactive: 0.042 and inactive: ≤ 0
COC[C@@H]([C@H](O)[C@H](O)C(=O)NCC[C@H](C)c1nc(/C=C/C[C@@H]2O[C@]3(C[C@@H](O)[C@@H]2C)O[C@H]([C@H](C[C@H](O)[C@H](C)[C@H](O)[C@H](C)/C=C(C)/C(C)=C/C=C/C(C)=C\C#N)OC)[C@H](OP(=O)(O)O)C3(C)C)co1)N(C)C [Calyculin A],scaled lipid accumulation score,library stock concentration: 500 uM,inactive: 0.228
COc1ccc(CCN2CCC(Nc3nc4ccccc4n3Cc3ccc(F)cc3)CC2)cc1 [Astemizole],scaled lipid accumulation score,[1],active: 0.907
CCN1C[C@]2(COC(=O)c3ccccc3N3C(=O)C[C@H](C)C3=O)CC[C@H](OC)[C@@]34[C@@H]5C[C@H]6[C@H](OC)[C@@H]5[C@](O)(C[C@@H]6OC)[C@](O)([C@@H](OC)[C@H]23)[C@@H]14 [Methyllycaconitine citrate],scaled lipid accumulation score,[1],inactive: ≤ -0.006
CCCCC/C=C\C/C=C\C/C=C\C/C=C\CCCC(=O)NC [Arachidonoyl-N-methyl amide],scaled lipid accumulation score,[4],inactive: 0.044
COc1ccc2c(c[n+](C)c3c4cc5c(cc4ccc23)OCO5)c1OC [Chelerythrine chloride],scaled lipid accumulation score,[5],inactive: ≤ -0.016
same,scaled lipid accumulation score,[6],inactive: ≤ -0.016
same,scaled lipid accumulation score,[1],inactive: 0.308 and inactive: 0.167
COc1ccc2c(c[n+](C)c3c4cc5c(cc4ccc23)OCO5)c1OC [Chelerythrine Chloride],scaled lipid accumulation score,[3],inactive: 0.656
CNc1ccc2oc(C[C@H]3O[C@@]4(CC[C@H]3C)O[C@H]([C@H](C)C(=O)c3ccc[nH]3)[C@H](C)C[C@H]4C)nc2c1C(=O)O,scaled lipid accumulation score,library stock concentration: 9.5 mM,inactive: 0.688
CNc1ccc2oc(C[C@H]3O[C@@]4(CC[C@H]3C)O[C@H]([C@H](C)C(=O)c3ccc[nH]3)[C@H](C)C[C@H]4C)nc2c1C(=O)O [Calcimycin],scaled lipid accumulation score,[1],inactive: 0.658
O=C(O)c1ccc2[nH]cc(CCCCN3CC=C(c4ccccc4)CC3)c2c1 [Carmoxirole hydrochloride],scaled lipid accumulation score,[1],inactive: 0.073
CC(=O)O[C@@]12C[C@@H](C)[C@@]3(O)[C@@H](C=C(CO)C[C@]4(O)C(=O)C(C)=C[C@@H]34)[C@@H]1C2(C)C [Prostratin],scaled lipid accumulation score,[4],active: 0.583
O=[N+]([O-])c1cc([As](=O)(O)O)ccc1O [Roxarsone],scaled lipid accumulation score,,inactive: ≤ 0
same,scaled lipid accumulation score,library stock concentration: 7.6 mM,inactive: ≤ 0
same,scaled lipid accumulation score,[1],inactive: ≤ 0
"CC(N)Cc1cccc(C(F)(F)F)c1 (single isomer, unassigned; (+)) [(+)-Norfenfluramine hydrochloride]",scaled lipid accumulation score,[1],inactive: 0.072
c1ccc2c(c1)[I+]c1ccccc1-2 [Diphenyleneiodonium],scaled lipid accumulation score,library stock concentration: 17.9 mM,inactive: 0.654
c1ccc2c(c1)[I+]c1ccccc1-2 [Diphenyleneiodonium chloride],scaled lipid accumulation score,[1],inactive: 0.216 and inactive: 0.086
c1cncc(C2=NCCC2)c1 [Myosmine],scaled lipid accumulation score,,inactive: ≤ 0
CCCN(CCC)C1CCc2cccc(O)c2C1 (stereo not given) [8-Hydroxy-DPAT hydrobromide],scaled lipid accumulation score,[1],inactive: 0.055
CCCN(CCC)C1CCc2cccc(O)c2C1 (stereo not given),scaled lipid accumulation score,[1],inactive: ≤ -0.07
Cn1c2cccc(=O)c-2nc2ccccc21 [Pyocyanin],scaled lipid accumulation score,[4],inactive: ≤ 0
C[C@]12CC[C@@H]3c4ccc(OC(=O)N(CCCl)CCCl)cc4CC[C@H]3[C@@H]1CC[C@@H]2O,scaled lipid accumulation score,[1],inactive: 0.409
CCCN1CCc2cccc3c2[C@H]1Cc1ccc(O)c(O)c1-3 [R(-)-Propylnorapomorphine hydrochloride],scaled lipid accumulation score,[1],inactive: ≤ -0.038
Cc1ccc(C[N+](C)(C)C)o1 [5-Methylfurmethiodide],scaled lipid accumulation score,[1],inactive: 0.011
CCCCCCCCCCCCCCCC(=O)OCC(COP(=O)([O-])OCC[N+](C)(C)C)OC(C)=O (stereo not given),scaled lipid accumulation score,[4],inactive: 0.014
c1cc(N2CCNCC2)c2cc[nH]c2c1 [4-(1-piperazinyl)-1H-Indole (hydrochloride)],scaled lipid accumulation score,[4],inactive: ≤ 0
O=c1[nH]c2ccccc2n1C1CCN(Cc2ccc(-c3[nH]c4cc5ncnc5cc4nc3-c3ccccc3)cc2)CC1 [Sigma A6730],scaled lipid accumulation score,[5],inactive: ≤ 0
same,scaled lipid accumulation score,[6],inactive: ≤ 0
same,scaled lipid accumulation score,library stock concentration: 2 mM,inactive: 0.055
same,scaled lipid accumulation score,[1],inactive: 0.683
CCCCC/C=C\C=C\[C@H](CCCCCCCC(=O)O)OO,scaled lipid accumulation score,library stock concentration: 100 uM,inactive: ≤ -0.021
CC(C)(Cc1c[nH]c2ccc(Cl)cc12)NCCOc1ccccc1OCC1CC1,scaled lipid accumulation score,[1],inactive: 0.301
CC1=C(O)C(=O)C=C2C1=CC=C1[C@@]2(C)CC[C@@]2(C)[C@@H]3C[C@](C)(C(=O)O)CC[C@]3(C)CC[C@]12C [Celastrol],scaled lipid accumulation score,[4],active: 1.34
CC(=O)NBr [N-Bromoacetamide],scaled lipid accumulation score,[1],inactive: 0.283
O=S(=O)(F)Cc1ccccc1,scaled lipid accumulation score,[3],inactive: ≤ 0
same,scaled lipid accumulation score,[1],inactive: ≤ 0
C=CCc1ccccc1OCC(O)CNC1(C)CCC(C(C)(C)NC(=O)CBr)CC1 (stereo not given) [Bromoacetyl alprenolol menthane],scaled lipid accumulation score,[1],inactive: ≤ 0
CC(=O)OCC(=O)[C@H]1CC[C@H]2[C@@H]3CC[C@H]4C[C@H](O)CC[C@]4(C)[C@H]3C(=O)C[C@]12C [Alfadolone acetate],scaled lipid accumulation score,,inactive: 0.097
C=C[C@]12CN(C)[C@@H]3[C@H]4CO[C@H](C[C@H]41)[C@]1(C(=O)Nc4ccccc41)[C@@H]32 [Gelsemine],scaled lipid accumulation score,,inactive: ≤ 0
CC(C)NP(=O)(NC(C)C)OP(=O)(NC(C)C)NC(C)C [Tetraisopropyl pyrophosphoramide],scaled lipid accumulation score,[1],inactive: ≤ 0
C=C(C)[C@@H]1[C@H]2OC(=O)[C@@H]1[C@]1(O)C[C@H]3O[C@]34C(=O)O[C@H]2[C@]14C [Picrotoxinin],scaled lipid accumulation score,,inactive: ≤ 0
N#CCCN [3-Aminopropionitrile fumarate],scaled lipid accumulation score,[1],inactive: ≤ 0
CC(C)c1c(CN(C)C(C)Cc2ccccc2)n(C)n(-c2ccccc2)c1=O (stereo not given) [Famprofazone],scaled lipid accumulation score,,inactive: ≤ 0
Oc1ccc(Cl)cc1 [Parachlorophenol],scaled lipid accumulation score,[1],inactive: ≤ 0
same,scaled lipid accumulation score,library stock concentration: 15.6 mM,inactive: ≤ -0.001
O=[N+]([O-])C=Cc1ccc2c(c1)OCO2,scaled lipid accumulation score,[3],active: 1.44
same,scaled lipid accumulation score,[1],active: 0.901
CCCCCCCCCCCCCCCC(=O)OC[C@H](COP(=O)([O-])OCC[N+](C)(C)C)OC(=O)CCCC=O,scaled lipid accumulation score,[4],inactive: 0.028
CN1CC[C@@]2(C)c3cc(OC(=O)Nc4ccccc4)ccc3N(C)[C@@H]12 [Phenserine],scaled lipid accumulation score,[1],inactive: 0.339
CC(=O)Oc1ccc(Cl)c2cccnc12 [Chloroacetoxyquinoline],scaled lipid accumulation score,[1],inactive: ≤ -0.027
O=P1(NCCCl)OCCCN1CCCl (stereo not given) [Ifosfamide],scaled lipid accumulation score,,inactive: ≤ 0
same,scaled lipid accumulation score,[3],inactive: 0.005
same,scaled lipid accumulation score,[2],inactive: ≤ 0
same,scaled lipid accumulation score,[1],inactive: ≤ 0
COc1ccc(C(=O)c2c(C)n(CCN3CCOCC3)c3cc(I)ccc23)cc1,scaled lipid accumulation score,[1],inactive: 0.048
"CCCCC/C=C\C/C=C\C/C=C\C/C=C\CCCC(=O)NCCO [Anandamide (20:3,n-6)]",scaled lipid accumulation score,[4],inactive: ≤ -0.021
"CCCCC/C=C\C/C=C\C/C=C\C/C=C\CCCC(=O)NCCO [Anandamide (20:4, n-6)]",scaled lipid accumulation score,[4],inactive: ≤ -0.013
CCCCC/C=C\C/C=C\C/C=C\C/C=C\CCCC(=O)NCCO [Arachidonoyl Ethanolamide],scaled lipid accumulation score,[4],inactive: 0.021
"CCCCC/C=C\C/C=C\C/C=C\C/C=C\CCCC(=O)NCCO [Anandamide (22:4,n-6)]",scaled lipid accumulation score,[4],inactive: ≤ -0.021
"CCCCC/C=C\C/C=C\C/C=C\C/C=C\CCCC(=O)NCCO [Anandamide (18:2,n-6)]",scaled lipid accumulation score,[4],inactive: ≤ -0.021
C[C@H](N)Cn1ccc2cc(F)c(Cl)cc21.O=C(O)/C=C/C(=O)O [Ro 60-0175 fumarate],scaled lipid accumulation score,[1],active: 0.953
